Over roughly 33,000 sequences, “E-score (-0.5 to 0.5)” has its median near -0.054; the highest 2% begin near 0.35. The list shows a part of the results.
Molecular target: T1, Stb5 (UniProt P38699)
T1 sequence: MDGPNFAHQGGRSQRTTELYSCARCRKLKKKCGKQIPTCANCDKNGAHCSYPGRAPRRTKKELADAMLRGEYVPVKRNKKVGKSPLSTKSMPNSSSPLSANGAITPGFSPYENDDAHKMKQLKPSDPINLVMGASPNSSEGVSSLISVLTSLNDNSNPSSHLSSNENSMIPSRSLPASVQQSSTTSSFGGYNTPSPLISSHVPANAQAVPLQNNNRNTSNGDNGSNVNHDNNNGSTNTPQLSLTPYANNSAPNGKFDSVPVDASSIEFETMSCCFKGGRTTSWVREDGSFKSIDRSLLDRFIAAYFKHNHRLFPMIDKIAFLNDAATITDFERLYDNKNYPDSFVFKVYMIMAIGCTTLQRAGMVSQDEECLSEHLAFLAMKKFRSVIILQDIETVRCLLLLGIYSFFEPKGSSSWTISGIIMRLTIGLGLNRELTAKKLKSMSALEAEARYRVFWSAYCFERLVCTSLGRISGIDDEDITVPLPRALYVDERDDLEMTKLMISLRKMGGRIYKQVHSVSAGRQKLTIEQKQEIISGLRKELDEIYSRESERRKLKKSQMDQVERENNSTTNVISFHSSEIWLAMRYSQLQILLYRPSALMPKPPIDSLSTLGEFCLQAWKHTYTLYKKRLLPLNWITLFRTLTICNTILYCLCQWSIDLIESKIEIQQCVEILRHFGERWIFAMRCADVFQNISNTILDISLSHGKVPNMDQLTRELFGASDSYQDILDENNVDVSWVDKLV
Test: PBM E-score (8-mer binding enrichment) (E-score (-0.5 to 0.5)); higher = stronger / more preferred TF binding; most listed sequences are background and not binding sites
Details: protein concentration: 200 nM; construct: GST-full length
Method in brief: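 PURExpress in vitro transcription/translation supplied GST-tagged yeast transcription factors, either full-length or DNA-binding domain. Applied at about 100-200 nM to universal all-10-mer Agilent arrays double-stranded by primer extension, the bound protein was detected with fluorescent anti-GST. E-scores, modified Wilcoxon-Mann-Whitney statistics, were given by the Universal PBM Analysis Suite to ungapped eight-base words pooled with their reverse complements after masliner normalisation.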

Row | Sequence | PBM E-score
1 | AGCACGGC | 0.108
2 | ACTTAGAA | -0.195
3 | GAGTCCCC | -0.12
4 | ATCCAATC | -0.0691
5 | TACGCTGA | -0.0453
6 | GAGCAGGC | -0.173
7 | ATCATAAG | -0.0407
8 | TAGGCCAA | -0.145
9 | AGCCCCGA | 0.397
10 | ATTCGATC | -0.0404
11 | GACAGGCA | -0.142
12 | ACTGAAGT | -0.0569
13 | GTGGGTAA | -0.154
14 | CGGTGTAA | 0.438
15 | AAAGTATT | -0.252
16 | CACGCGCC | 0.0996
17 | GGTATAGA | 0.0987
18 | ATGTTTAC | -0.0155
19 | ATAACTAA | -0.0869
20 | CACGTCAG | -0.163
21 | CGTAGGAG | 0.125
22 | ACTGGTCC | 0.2

Row | Sequence | PBM E-score
23 | GGAGGTGA | 0.00073
24 | TCCATCAA | 0.0779
25 | AAACCTTG | -0.246
26 | GGCTGCAC | -0.12
27 | GGCATTAA | 0.317
28 | AGTCAACC | -0.11
29 | GATGCTTA | 0.0976
30 | GCGCAGAA | -0.178
31 | AAGTATCT | -0.104
32 | CGCTCAAC | -0.0617
33 | ACCCCCGC | 0.398
34 | AGCAGGAT | -0.108
35 | ATAATAAT | -0.0963
36 | ACATTCGA | -0.0522
37 | GTTGGGAA | -0.19
38 | GAACAGAC | 0.0276
39 | GGGATATA | 0.272
40 | AGCCGGGC | 0.134
41 | TACAGAGA | -0.241
42 | CGTTCCAG | 0.0717
43 | ACTTGGGG | -0.141
44 | CCAGAGAA | -0.209

Row | Sequence | PBM E-score
45 | GCAACTGC | -0.112
46 | AATGCCCA | -0.283
47 | ATCTCGGC | 0.0388
48 | GCCCATTA | -0.218
49 | ACAATAAG | 0.0543
50 | CAAAAAAC | -0.0944
51 | GACAAACC | -0.00903
52 | AGTATAGA | 0.0183
53 | AATGTACG | -0.194
54 | CCTTCTAC | -0.12
55 | AAGACAAT | -0.0674
56 | ACAGTTCC | 0.0786
57 | GTGCTTCA | -0.109
58 | CGCGGCCG | 0.191
59 | CTTCTTGC | -0.122
60 | ACGCCCCA | -0.22
61 | CGCCAGCC | 0.206
62 | ACACTGGC | -0.298
63 | GGGAAGCA | -0.0216
64 | CGGCGGAC | 0.377
65 | CCGGGAGA | 0.0459
66 | CAATTTAC | 0.127

Row | Sequence | PBM E-score
67 | GTCTTAAC | 0.0408
68 | CCCCAGTA | -0.0689
69 | CCGAAACG | 0.275
70 | CCAAGAGC | -0.177
71 | ATAGGCTC | -0.0838
72 | CGTAGTGC | 0.174
73 | CGAGAACA | -0.0167
74 | GATATGCC | -0.0103
75 | CCGAGCAA | 0.0202
76 | CAGATAGA | -0.213
77 | CCGCACCA | 0.199
78 | GGAAGCCA | -0.138
79 | CCGTGGTC | 0.0916
80 | TGCCGGAA | 0.179
81 | AAATTCCG | 0.251
82 | GATCCACA | 0.0127
83 | GCTGTTTA | 0.0813
84 | TCACACCA | -0.219
85 | GACGACTA | -0.218
86 | ACACTATC | -0.122
